# Assay results: PubChem BioAssay AID686971 (National Center for Advancing Translational Sciences (NCATS), 2013)
# Screen size: about 360,000 compounds; about 7,500 (2.1%) were called active. The shares of active, inactive and inconclusive entries below differ from those in the screen. Calls come from the whole dose curve; as a rule, active = well fitted cell-killing curve with a large enough effect; inconclusive = small, poorly fitted or top-dose-only effect, or effect the other way, or another doubt; inactive = no such curve, though single readings can be large or run the other way. Potencies of inconclusive entries are left out as doubtful fits.
# Test: qHTS for induction of synthetic lethality in tumor cells producing 2HG: qHTS for the HT-1080-IDH1KD cell line;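 for activity, negative = toxicity: 0% = DMSO wells and -100% = cell-free medium wells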
# Settings: HT-1080 IDH1 knockdown viability, ATP luminescence, 48 h; activity, negative = toxicity: at 46.1 µM (top of the series) unless noted
# How it was run: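 CellTiter-Glo luminescence after 48 h compound exposure at 37 degrees C of IDH1-knockdown HT-1080 cells in 5% FBS RPMI. %Activity scaled between DMSO wells and cell-free media wells, with curves fitted and assigned curve classes.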
# Potency is the fitted concentration of half-maximal effect; tags give direction and shape of the fitted curve.
Structure (SMILES),Potency,"activity, negative = toxicity"
Cc1csc(NS(=O)(=O)c2cccc([N+](=O)[O-])c2)n1,"inconclusive [cytotoxic, single point]",–
O=C(Nc1ccc2c(c1)OCO2)c1cc2ncc(Br)cn2n1,–,inactive: 2.93%
Cn1c(SCc2c(Cl)cccc2Cl)nnc1-c1cccs1,–,inactive: 17.7%
CCOc1ccc2c(c1)OC(c1ccc(OC)cc1)(C(F)(F)F)NC2=O (configuration not stated),active: 4.61 µM,–
Cc1ccc(-c2nc(SCC(=O)N(C)C3CCS(=O)(=O)C3)[nH]c2-c2ccc(C)cc2)cc1 (configuration not stated),"inconclusive [cytotoxic, single point]",–
c1ccc(CNc2nc(NCc3cccs3)nc3ccsc23)cc1,"inconclusive [cytotoxic, single point]",–
Oc1ccc(Cl)cc1C1=NNC(c2ccc(Cl)cc2)C1 (configuration not stated),"inconclusive [cytotoxic, partial curve]",–
CCCCC(=O)NC(c1ccccc1Cl)c1c(O)ccc2ccccc12 (configuration not stated),"inconclusive [cytotoxic, single point]",–
CCN(CC(=O)Nc1cccc(C#N)c1)CC(=O)Nc1cccc(OC)c1,"inconclusive [cytotoxic, single point]",–
CC(C)C(OC(=O)C1=Cc2ccccc2OC1)C(=O)NCC1CCCO1 (configuration not stated),–,inactive: 3.31%
O=C(CC(=O)c1cc(Cl)ccc1O)c1ccccc1,"inconclusive [cytotoxic, single point]",–
CC(=O)Nc1ccc(S(=O)(=O)c2ccnc3cc(Cl)ccc23)cc1,"inconclusive [cytotoxic, single point]",–
CCCCCc1ccc(OCCOCCn2c[n+](C)c3ccccc32)c(CCCCC)c1,"inconclusive [cytotoxic, single point]",–
O=C(C=Cc1ccccc1)c1c[nH]c2ccccc2c1=O,"inconclusive [cytotoxic, partial curve]",–
O=C(NCc1ccco1)c1ccccc1NS(=O)(=O)c1ccc(Cl)s1,"inconclusive [cytotoxic, single point]",–
O=C(c1cccc(C(F)(F)F)c1)C1CCCN(Cc2cccn2-c2ncccn2)C1 (configuration not stated),"inconclusive [cytotoxic, single point]",–
Cc1cc(Nc2ccc(Cl)cc2)nc(-c2ccccc2O)n1,"inconclusive [cytotoxic, single point]",–
Cc1ccccc1/C=C/c1cc[n+](C)cc1,–,inactive: -19.3%
COc1ccc(C2=C/C(=C\c3cccc(OC(C)=O)c3)C(=O)O2)cc1,–,inactive: -4.17%
O=C(NNC(=O)c1cc(-c2ccc(Cl)cc2Cl)nc2ccccc12)Nc1ccccc1,"inconclusive [cytotoxic, single point]",–
OC(CN1C2=NCCCN2c2ccccc21)c1ccc(Cl)cc1 (configuration not stated),"inconclusive [cytotoxic, single point]",–
NC(CCc1ccccc1)c1csc(Nc2ccccn2)n1 (configuration not stated),active: 16.4 µM,–
Cc1csc(/C(=N\O)c2csc(C)n2)n1,active: 15.8 µM,–
O=C(NCc1cccc(Cl)c1)c1ccc(-n2cncn2)c2ccoc12,–,inactive: -3.01%

Structure (SMILES),Potency,"activity, negative = toxicity"
Cc1cc(C2CCCCC2)n(O)c(=O)c1,active: 18.4 µM,–
Cc1ccccc1Cn1nnc(C(=O)Nc2ccc3c(c2)OCCO3)c1N,"inconclusive [cytotoxic, single point]",–
CCCNC(=O)c1cc2c(c(-c3cccc(-c4ccc(F)cc4)c3)n1)[C@H](CCO)N(S(=O)C(C)(C)C)C2 (some centres not stated),"inconclusive [cytotoxic, single point]",–
O=C(Nc1ccc(Cl)cc1)N1CCC(c2nc(-c3ccc(F)cc3)no2)CC1,"inconclusive [cytotoxic, single point]",–
O=C(Nc1ccc(N2CCN(C(=O)c3ccccc3)CC2)cc1)c1ccc([N+](=O)[O-])o1,"inconclusive [cytotoxic, single point]",–
Oc1ccc(/C=N/Nc2ccc(C(F)(F)F)cn2)cc1,"inconclusive [cytotoxic, single point]",–
Cc1cc(=O)[nH]c(SCC(=O)Nc2ccnc3ccccc23)n1,–,inactive: 3.03%
O=C(CC(=O)OCc1ccccc1)OCc1ccccc1,–,inactive: 2.73%
CCNC(C(=O)c1c[nH]c2c(CC)cccc12)c1ccccc1 (configuration not stated),"inconclusive [cytotoxic, single point]",–
O=C(CCNS(=O)(=O)c1cccc2nonc12)NC1CCCc2ccccc21 (configuration not stated),–,inactive: -8.38%
N=c1c2c(-c3ccccc3)c(-c3ccccc3)n(Cc3ccco3)c2ncn1CCCn1ccnc1,"inconclusive [cytotoxic, single point]",–
Cc1cccnc1C(NC(=O)C1CCN(CCCc2ccccc2)CC1)c1ccc(Cl)cc1 (configuration not stated),"inconclusive [cytotoxic, single point]",–
Cc1ccc(NC(=O)c2cccc3c2C(=O)N(C2CCCCC2)C3)c(C)c1,–,inactive: -4.79%
C=CCNc1nnc(SC2CC(=O)N(c3ccc(OCCC)cc3)C2=O)s1 (configuration not stated),"inconclusive [cytotoxic, single point]",–
CCC/C=N/Nc1nnc(Cc2ccccc2)c(=O)[nH]1,"inconclusive [cytotoxic, partial curve, poor fit]",–
COc1ccc(C)cc1NC(=O)CC1COc2ccccc2O1 (configuration not stated),–,inactive: 12%
CCCCn1nnnc1C(c1ccccc1)N1CCN(c2cc(C)ccc2C)CC1 (configuration not stated),"inconclusive [cytotoxic, single point]",–
CCn1c2ccccc2c2cc(NC(=O)N3CCCCC3)ccc21,"inconclusive [cytotoxic, single point]",–
CCCCn1c(N)c(N(CCOC)C(=O)COC(=O)CCOc2ccccc2)c(=O)[nH]c1=O,–,inactive: 8.03%
CC(C)C(=O)c1cn(CC(=O)NCc2ccc3c(c2)OCO3)c2ccccc12,–,inactive: -7.28%
Cc1cccc(N2CCN(C(=O)COc3ccc4c(C)cc(=O)oc4c3C)CC2)c1C,"inconclusive [cytotoxic, single point]",–
Cc1nc(SCC(=O)N2CCc3ccccc3C2)c2c(C)c(C)sc2n1,"inconclusive [cytotoxic, single point]",–
CN(Cc1cccnc1)C(=O)CNC(=O)COc1ccccc1,–,inactive: 2.52%
CCn1c(NC(=S)Nc2ccccc2)nc2ccccc21,–,inactive: -14.1%

Structure (SMILES),Potency,"activity, negative = toxicity"
CC(=O)Nc1ccc(-c2ccnc3c2CC(C(=O)Nc2cccc(C(F)(F)F)c2)O3)cc1 (configuration not stated),active: 16.4 µM,–
COc1ccc(N(C(=O)C(C)C)S(=O)(=O)c2cccs2)cc1,"inconclusive [cytotoxic, single point]",–
CCOC(=O)CNC(=O)CSc1nnc(-c2cccc(C)c2)n1-c1ccc(OC)cc1,"inconclusive [cytotoxic, single point]",–
COc1ccc(C2=NOC(C(=O)NCc3ccc(F)cc3)C2)cc1 (configuration not stated),"inconclusive [cytotoxic, partial curve]",–
Cc1ccc(-c2nc(N/N=C/c3ccccc3[N+](=O)[O-])c3ccccc3n2)cc1,active: 4.47 µM,–
Oc1ccccc1CNc1ccc(OC(F)(F)F)cc1,"inconclusive [cytotoxic, partial curve]",–
O=C(Nc1cc(S(=O)(=O)N2CCOCC2)ccc1Cl)c1cc([N+](=O)[O-])ccc1Cl,active: 20.6 µM,–
Cc1ccc(C(=O)CSc2nc3ccccc3o2)cc1,"inconclusive [cytotoxic, single point]",–
O=C(NC(=S)Nc1ccccc1N1CCCCC1)c1cccs1,"inconclusive [cytotoxic, single point]",–
CC(CC(=O)Nc1ccc(Cl)c([N+](=O)[O-])c1)c1ccccc1 (configuration not stated),"inconclusive [cytotoxic, single point]",–
O=C(Nc1cccc(Cl)c1)c1cccc(Oc2ccc([N+](=O)[O-])cc2Cl)c1,"inconclusive [cytotoxic, single point]",–
O=C(NNC(=O)C1CCN(Cc2ccccc2)CC1)c1cccs1,–,inactive: 5.32%
COc1ccc(Cn2c(CCC(=O)Nc3ccccc3)nc3cccnc32)cc1,"inconclusive [cytotoxic, single point]",–
COCCNc1nc(-c2ccccc2F)c2sc(-c3ccccc3)cc2n1,"inconclusive [cytotoxic, single point]",–
CCCCCC(=O)Nc1ccc(-c2csc(N)n2)cc1,"inconclusive [cytotoxic, single point]",–
CCN(CC)c1ccc(NC(=O)c2c(C)noc2C)cc1,"inconclusive [rising, partial curve]",–
CCOC(=O)[C@H]1[C@H]2COc3ccc(Cl)cc3[C@@H]2N2C(=O)c3cc(F)c(F)cc3NC(=O)[C@@]12C,"inconclusive [cytotoxic, single point]",–
O=C(NCCC1CCCCN1S(=O)(=O)c1ccccc1)C(=O)NCc1ccncc1 (configuration not stated),–,inactive: -0.494%
CCOc1ccccc1OCCOCCN1CCN(Cc2ccccc2)CC1,–,inactive: -6.56%
C[C@H]1CN([C@@H](C)CO)C(=O)c2cc(Br)cnc2O[C@H]1CN(C)Cc1ccc(Oc2ccccc2)cc1,"inconclusive [cytotoxic, single point]",–
O=C(Nc1ccnn1C1CCN(C(=O)c2cccc(Cl)c2)CC1)C1CCOC1 (configuration not stated),–,inactive: 2.76%
CCc1ccc(/C=C2/C(=O)N(c3ccccc3)C(=S)N2CC(=O)OC)s1,"inconclusive [cytotoxic, partial curve]",–
CC1CCc2nc3sc4c(c3c(N)c2C1)CCCC4 (configuration not stated),–,inactive: -2.97%
Cc1cccnc1C1=NOC(Cc2ccccc2)C(=O)N1C (configuration not stated),–,inactive: 15.5%
